Source: PubChem BioAssay AID504333 (National Center for Advancing Translational Sciences (NCATS), 2011)
Among all 360,000 compounds or so, about 16,000 (4.4%) were called active. The shares of active, inactive and inconclusive entries below differ from those in the screen. Calls follow the shape of the dose curve; as a rule, active = well fitted inhibition curve with a large enough effect; inconclusive = small, poorly fitted or top-dose-only effect; inactive = no such curve, though single readings can be large or run the other way. A potency beside an inconclusive call is a rough fit, not a confirmed value.

Target: Bromodomain adjacent to zinc finger domain protein 2B (Homo sapiens) (UniProt Q9UIF8)
Chain of UniProt Q9UIF8 (Q9UIF8 whole entry, looked up, the tested form may be a part): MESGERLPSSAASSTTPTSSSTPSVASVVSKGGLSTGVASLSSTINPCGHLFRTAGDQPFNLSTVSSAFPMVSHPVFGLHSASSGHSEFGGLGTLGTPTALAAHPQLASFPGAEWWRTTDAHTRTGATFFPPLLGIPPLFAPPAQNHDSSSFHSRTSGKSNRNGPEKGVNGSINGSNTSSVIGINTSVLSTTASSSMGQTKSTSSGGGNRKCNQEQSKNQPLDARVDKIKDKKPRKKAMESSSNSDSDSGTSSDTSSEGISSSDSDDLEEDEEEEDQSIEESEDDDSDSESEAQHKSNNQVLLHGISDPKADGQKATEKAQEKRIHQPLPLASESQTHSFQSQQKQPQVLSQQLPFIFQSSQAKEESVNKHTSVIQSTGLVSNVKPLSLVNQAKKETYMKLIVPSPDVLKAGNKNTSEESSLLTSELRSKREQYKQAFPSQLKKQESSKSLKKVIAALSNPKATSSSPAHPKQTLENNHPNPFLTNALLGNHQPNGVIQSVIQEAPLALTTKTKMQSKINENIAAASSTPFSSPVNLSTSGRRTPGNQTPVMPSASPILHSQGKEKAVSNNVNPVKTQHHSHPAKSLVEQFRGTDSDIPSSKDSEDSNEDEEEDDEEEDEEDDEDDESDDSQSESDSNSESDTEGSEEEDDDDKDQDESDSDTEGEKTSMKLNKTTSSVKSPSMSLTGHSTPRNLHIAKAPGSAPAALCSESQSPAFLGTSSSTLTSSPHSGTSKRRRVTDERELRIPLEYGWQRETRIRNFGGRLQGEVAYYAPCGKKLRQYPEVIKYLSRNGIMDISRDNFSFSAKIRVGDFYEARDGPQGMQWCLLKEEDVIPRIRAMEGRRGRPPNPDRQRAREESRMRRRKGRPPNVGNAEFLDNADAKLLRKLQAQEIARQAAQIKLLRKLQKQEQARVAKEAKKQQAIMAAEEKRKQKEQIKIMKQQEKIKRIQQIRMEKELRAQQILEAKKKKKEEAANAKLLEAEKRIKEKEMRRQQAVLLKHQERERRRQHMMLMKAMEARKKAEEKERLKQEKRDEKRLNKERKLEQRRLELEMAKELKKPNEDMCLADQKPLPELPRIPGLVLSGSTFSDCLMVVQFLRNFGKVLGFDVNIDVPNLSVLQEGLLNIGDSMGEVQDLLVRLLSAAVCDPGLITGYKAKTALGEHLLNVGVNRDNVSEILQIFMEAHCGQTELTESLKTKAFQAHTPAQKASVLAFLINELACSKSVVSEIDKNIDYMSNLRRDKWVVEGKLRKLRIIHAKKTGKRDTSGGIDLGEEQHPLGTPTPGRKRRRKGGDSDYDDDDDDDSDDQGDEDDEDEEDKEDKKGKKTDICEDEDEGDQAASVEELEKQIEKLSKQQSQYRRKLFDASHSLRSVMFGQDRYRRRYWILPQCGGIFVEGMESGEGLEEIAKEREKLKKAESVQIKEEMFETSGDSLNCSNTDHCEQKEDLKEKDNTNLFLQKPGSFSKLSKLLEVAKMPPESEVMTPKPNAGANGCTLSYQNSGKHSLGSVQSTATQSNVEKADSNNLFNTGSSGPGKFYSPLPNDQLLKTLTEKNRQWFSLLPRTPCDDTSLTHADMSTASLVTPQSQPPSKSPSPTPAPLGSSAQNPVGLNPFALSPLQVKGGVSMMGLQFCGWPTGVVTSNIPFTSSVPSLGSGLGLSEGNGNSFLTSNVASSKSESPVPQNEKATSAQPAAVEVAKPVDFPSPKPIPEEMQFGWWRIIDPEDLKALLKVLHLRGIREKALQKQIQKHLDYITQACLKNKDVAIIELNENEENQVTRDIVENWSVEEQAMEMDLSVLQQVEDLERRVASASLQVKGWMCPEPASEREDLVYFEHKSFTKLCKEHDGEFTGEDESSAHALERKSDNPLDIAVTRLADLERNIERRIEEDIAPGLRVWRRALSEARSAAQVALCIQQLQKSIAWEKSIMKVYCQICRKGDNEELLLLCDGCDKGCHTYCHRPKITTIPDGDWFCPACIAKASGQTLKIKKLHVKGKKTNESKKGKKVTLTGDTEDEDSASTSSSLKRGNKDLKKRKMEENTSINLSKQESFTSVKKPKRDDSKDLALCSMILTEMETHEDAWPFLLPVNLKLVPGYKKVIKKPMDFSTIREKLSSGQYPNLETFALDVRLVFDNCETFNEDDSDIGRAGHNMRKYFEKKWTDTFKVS
Test: qHTS Assay for Inhibitors of BAZ2B; also: nearly all actives have a fitted effect of over 60% in size
Conditions: AlphaScreen BAZ2B-H3K14Ac peptide displacement; series mostly up to 114 µM
In short: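 Complex of BAZ2B and biotin-H3K14Ac (50 nM apiece) forms over 30 min at RT, then faces library compounds up to 110 uM for another 30 min; AlphaScreen beads added, 20 min dark incubation, luminescence read.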
Potency is read from the fitted curve at half-maximal effect; tags tell the direction and shape of the fitted curve.

Row | SMILES | Potency
1 | O=C(c1ccco1)N1CCN(c2ccc(F)cc2)CC1 | inactive
2 | COc1ccc(NS(=O)(=O)c2ccc(-c3cnc(C4CC4)o3)cc2)cc1OC | inconclusive: 50.1 µM [inhibitor, partial curve]
3 | CC1=CC(=O)O[C@@H]1[C@@]1(C)C[C@H]2OC(=O)C[C@H]3[C@@H](C)C(=O)C(O)=C1[C@@]23CO | inactive
4 | Cc1ccc(C(=O)CSc2nsc(C)c2C#N)cc1 | inactive
5 | Cn1cc(C(=O)c2ccc(Cl)cc2)cc1-c1nc2ccccc2n1C | inconclusive: 28.2 µM [inhibitor, full curve]
6 | COc1ccc(N(C(=O)c2ccncc2)S(=O)(=O)c2ccc(F)cc2)cc1 | inactive
7 | CC(C)CC(=O)N1CCN(Cc2ccc3ccccc3c2)CC1 | inconclusive: 89.1 µM [inhibitor, single point]
8 | Cn1c(=O)[nH]c(=O)c2c1nc(NC1CCCCC1)n2Cc1ccccc1 | inconclusive: 39.8 µM [inhibitor, single point]
9 | CCn1c(CNC(=O)c2ccccc2Cl)cc2ccccc21 | inconclusive: 89.1 µM [inhibitor, single point]
10 | CN(C)c1ccc(CN(CC2CCCO2)C(=O)c2cccs2)cc1 (stereo not given) | inconclusive: 50.1 µM [inhibitor, partial curve]
11 | CC(=O)N1CCc2c(sc3c2c(=O)n(-c2cccc(Cl)c2C)c(=O)n3Cc2ccccc2C)C1 | inconclusive: 20 µM [inhibitor, full curve]
12 | O=C(NN1CCOCC1)c1ccccc1F | inactive
13 | CN(C)S(=O)(=O)c1ccc2c(c1)nc(CCC(=O)Nc1ccc(N3CCOCC3)cc1)n2C | inconclusive: 89.1 µM [inhibitor, single point]
14 | CCCOC(=O)C1=C(C)NC2=C(C(=O)C(C(=O)OC)C(C)C2)C1c1ccc(N(CC)CC)cc1 (stereo not given) | inconclusive: 39.8 µM [inhibitor, full curve, poor fit]
15 | O=C(c1ccc(S(=O)(=O)N2CCOCC2)cc1)N(Cc1ccco1)Cc1cccs1 | inconclusive: 89.1 µM [inhibitor, single point]
16 | Cc1ccc(N2CCN(/N=C/c3cccnc3)CC2)cc1 | inconclusive: 44.7 µM [inhibitor, partial curve]
17 | CCN(Cc1ccccc1)c1ccc(/C=N/NS(=O)(=O)c2cccc([N+](=O)[O-])c2)cc1 | inconclusive: 35.5 µM [inhibitor, full curve]
18 | CN(C)c1ccc(C2SCCN2C(=O)c2ccc([N+](=O)[O-])cc2)cc1 (stereo not given) | active: 44.7 µM
19 | Cc1ccccc1C(=O)Nc1cccc(OCc2cc(=O)n3c4c(sc3n2)CCCC4)c1 | inactive
20 | CCOc1ccc(NC(=S)c2ccncc2)cc1 | inconclusive: 89.1 µM [inhibitor, single point]
21 | COc1ccc(Cn2ccnc2SCC(=O)Nc2ccc3c(c2)OCO3)cc1 | inconclusive: 31.6 µM [inhibitor, partial curve]
22 | Cc1cc(N/N=C/c2ccc(O)cc2)c2cccc(C)c2n1 | active: 39.8 µM
23 | N#C/C(=C\c1ccc(O)c(O)c1)C(=O)NCCCc1ccccc1 | active: 8.91 µM
24 | Cc1ccc(NC(=O)CN(C)C(=O)c2cccc(Br)c2)cc1 | inactive
25 | Cc1ccc(SCc2[nH]nc3c2C2(CCSCC2)C(C#N)=C(N)O3)cc1 | inconclusive: 70.8 µM [inhibitor, single point]

Row | SMILES | Potency
26 | CCc1ccc(S(=O)(=O)N/N=C\c2ccc([N+](=O)[O-])o2)cc1 | inconclusive: 79.4 µM [inhibitor, single point]
27 | CCOC(=O)c1cnn2c(N)c(C#N)cnc12 | inconclusive: 89.1 µM [inhibitor, partial curve]
28 | CCOC(=O)C1CCCN(C(=O)COC(=O)c2ccc(C#N)cc2)C1 (stereo not given) | inactive
29 | CCN1C(=O)C(C(=O)c2ccccc2)SC1=S (stereo not given) | active: 56.2 µM
30 | CCCC[n+]1c(-c2ccc(Cl)cc2Cl)csc1Nc1ccccc1 | active: 12.6 µM
31 | COc1ccc(N2C(=O)/C(=C/c3ccc([N+](=O)[O-])cc3)N=C2C)cc1 | inconclusive: 79.4 µM [inhibitor, single point]
32 | Cc1ccc2cc(C)c3nnc(SCc4ccc(C(=O)O)cc4)n3c2c1C | inconclusive: 79.4 µM [inhibitor, single point]
33 | CCSc1nc2nn(-c3ccccc3)c(=O)c-2c2n1CCCCC2 | inconclusive: 79.4 µM [inhibitor, single point]
34 | COc1ccc(N2CCN(C(CNC(=O)CC(C)(C)C)c3ccc4c(c3)OCO4)CC2)cc1 (stereo not given) | inconclusive: 28.2 µM [inhibitor, single point]
35 | CCOC(=O)N1CCC(NC(=O)c2cc(C(=O)NC3CCN(Cc4ccccc4)CC3)ccc2CO)CC1 | inconclusive: 89.1 µM [inhibitor, single point]
36 | COc1ccc2[nH]c(C(=O)O)c(NS(=O)(=O)c3ccc(OC)c(OC)c3)c2c1 | inconclusive: 50.1 µM [inhibitor, partial curve]
37 | COc1cccc(CNC(=O)Cn2ccc3cc(S(=O)(=O)N4CCCCCC4)ccc32)c1OC | inconclusive: 79.4 µM [inhibitor, single point]
38 | O=[N+]([O-])c1cc(S(=O)(=O)Nc2ccccc2)ccc1-n1nnc2ccccc21 | inconclusive: 70.8 µM [inhibitor, single point]
39 | Cc1sc2nc(SCc3ccc(C(=O)O)cc3)n(Cc3ccco3)c(=O)c2c1C | inconclusive: 56.2 µM [inhibitor, partial curve]
40 | CC1CCCN(S(=O)(=O)c2ccc3[nH]c4c(c3c2)CCCC4)C1 (stereo not given) | active: 25.1 µM
41 | c1ccc([C@H]2CN3C(=N2)Sc2ccccc23)cc1 | inactive
42 | COc1ccc(OC)c(NC(=O)c2oc3c(c2C)C(O)CC(C)(C)C3)c1 (stereo not given) | inconclusive: 50.1 µM [inhibitor, partial curve]
43 | CN(C)c1cccc(NC(=O)Cc2ccc(F)cc2)c1 | inconclusive: 79.4 µM [inhibitor, single point]
44 | COc1ccccc1N=C1NC(=O)/C(=C/c2ccc(N(C)C)cc2)S1 | active: 44.7 µM
45 | c1ccc(-c2cnc(CSc3nnc4ccccn34)o2)cc1 | inactive
46 | N#Cc1c[nH]n2c(NC3CCCC3)c(-c3cccc(Br)c3)nc12 | inactive
47 | Cn1c(C=O)c(C#CC(C)(C)O)c2ccccc21 | inconclusive: 89.1 µM [inhibitor, single point]
48 | CCOC(=O)c1c(S(=O)(=O)NCc2ccc(C)o2)c(C)n(C)c1C | inconclusive: 79.4 µM [inhibitor, single point]
49 | CN(C)c1cc[n+](CC(=O)c2ccc(-c3ccccc3)cc2)cc1 | inactive
50 | Cc1ccccc1CN1CCN(CC2CC3C=CC2C3)CC1 (stereo not given) | active: 22.4 µM

Row | SMILES | Potency
51 | COC(Cc1ccccc1N1CCCC1=O)OC | inconclusive: 89.1 µM [inhibitor, single point]
52 | CN(c1ccccc1C(=O)O)S(=O)(=O)c1ccc2c3c(cccc13)C(=O)N2 | inconclusive: 89.1 µM [inhibitor, single point]
53 | N/C(Cc1cccc2ccccc12)=N\OC(=O)c1ccc(Br)o1 | inactive
54 | CN(C)c1ccc(CN(Cc2ccco2)C(=O)COc2ccc(F)cc2)cc1 | active: 28.2 µM
55 | CC(=O)Nc1ccc(S(=O)(=O)N2CCSC2C(=O)O)cc1 (stereo not given) | inconclusive: 3.98 µM [inhibitor, single point]
56 | COc1ccc(C(=O)Nc2ccc(N3CCOCC3)cc2)cc1S(=O)(=O)N1CCOCC1 | inactive
57 | O=C(Cn1nc(CNc2ccc(Br)cc2)[n+]2c1CCCCC2)c1ccc([N+](=O)[O-])cc1 | inconclusive: 39.8 µM [inhibitor, partial curve]
58 | Cc1ccc(NC(=O)N2CC3CCCN3c3ccccc32)cc1C (stereo not given) | active: 25.1 µM
59 | COC(=O)c1ccc(NS(=O)(=O)c2ccc3[nH]c(=O)oc3c2)cc1 | inconclusive: 56.2 µM [inhibitor, single point]
60 | Cn1ccc(C(=O)NC(=S)N2CCSCC2)n1 | inactive
61 | COc1ccc(/C=N/Nc2nncc3ccccc23)cc1 | active: 25.1 µM
62 | NC(=O)C1CC(=O)N(c2ccc(OCc3ccc(F)cc3)cc2)C1 (stereo not given) | inactive
63 | COC(=O)[C@@]1(Cc2ccc(F)cc2)[C@H]2c3cc(C(=O)N4CCCC4)n(CCc4c[nH]c5ccc(OC)cc45)c3C[C@H]2CN1C(=O)c1ccccc1 | inconclusive: 39.8 µM [inhibitor, partial curve]
64 | CCOC(=O)c1c(C)c(C(=O)NC2CCCCC2)c(C)n1CC | inactive
65 | N#Cc1ccc(-c2csc(NC(=O)C3CC3)n2)cc1 | inactive
66 | O=C(Nc1nc(-c2ccccn2)cs1)c1ccccc1-n1cnnn1 | active: 22.4 µM
67 | COc1ccc2nc(N3CCCCC3)c(/C=C3\SC(=S)NC3=O)cc2c1 | active: 25.1 µM
68 | CCOc1ccc(NCC(=O)Nc2ccc(Cl)cc2C)cc1 | inconclusive: 79.4 µM [inhibitor, single point]
69 | O=C(CNC(=O)c1ccc(Cl)cc1)OCc1nc2ccccc2s1 | inactive
70 | Cc1ccc(C(=O)NC(=S)NNC(=O)CCN2CCOCC2)cc1 | active: 56.2 µM
71 | COc1ccc(CN(C(=O)c2ccccc2F)C2CCS(=O)(=O)C2)cc1 (stereo not given) | inactive
72 | C/C(C/C(C)=C1/SC(=S)NC1=O)=C1\SC(=S)NC1=O | inactive
73 | CCOc1ccccc1CN1CCN(Cc2cccc3nonc23)CC1CCO (stereo not given) | inactive
74 | CC(C)c1ccc(NC(=O)NCc2cccnc2)cc1 | inactive
75 | Cc1ccc2c(Sc3ccc(Cl)cc3)c(C(=O)NCCC(C)C)[nH]c2c1 | inconclusive: 39.8 µM [inhibitor, partial curve]
